Results: the GPR68 mutational scans of Howard et al. (2025)

B1: GPR68, Q15743 (parent)
chain: MGNITADNSSMSCTIDHTIHQTLAPVVYVTVLVVGFPANCLSLYFGYLQIKARNELGVYLCNLTVADLFYICSLPFWLQYVLQHDNWSHGDLSCQVCGILLYENIYISVGFLCCISVDRYLAVAHPFRFHQFRTLKAAVGVSVVIWAKELLTSIYFLMHEEVIEDENQHRVCFEHYPIQAWQRAINYYRFLVGFLFPICLLLASYQGILRAVRRSHGTQKSRKDQIQRLVLSTVVIFLACFLPYHVLLLVRSVWEASCDFAKGVFNAYHFSLLLTSFNCVADPVLYCFVSETTHRDLARLRGACLAFLTCSRTGRAREAYPLGAPEASGKSGAQGEEPELLTKLHPAFQTPNSPGSGGFPTGRLA

What was measured:
[1] = variants of: B1; test: cAMP reporter score (Enrich2 score, wild type = 0); higher = more signal; HEK293T, FACS bins
[2] = variants of: B1; test: surface expression score (Enrich2 score, wild type = 0); higher = more signal; HEK293T, FACS bins

| Variant | cAMP reporter score ([1]; pH 5.5) | cAMP reporter score ([1]; pH 6) | cAMP reporter score ([1]; pH 6, modulator: ogerin) | cAMP reporter score ([1]; pH 6.5, modulator: ogerin) | surface expression score [2] |
| --- | --- | --- | --- | --- | --- |
| MGNITADNSSMSCTIDHTIHQTLAPVVYVTVLVVGFPANCLSLYFGYLQIKARNELGVYLCNLTVADLFYICSLPFWLQYVLQHDNWSHGDLSCQVCGILLYENIYISVGFLCCISVDRYLAVAHPFRFHQFRTLKAAVGVSVVIWAKELLTSIYFLMHEEVIEDENQHRVCFEHYPIQAWKRAINYYRFLVGFLFPICLLLASYQGILRAVRRSHGTQKSRKDQIQRLVLSTVVIFLACFLPYHVLLLVRSVWEASCDFAKGVFNAYHFSLLLTSFNCVADPVLYCFVSETTHRDLARLRGACLAFLTCSRTGRAREAYPLGAPEASGKSGAQGEEPELLTKLHPAFQTPNSPGSGGFPTGRLA [Q182K] | 0.317 | 2.86 | 0.546 | 3.26 | -0.802 |
| MGNITADNSSMSCTIDHTIHQTLAPVVYVTVLVVGFPANCLSLYFGYLQIKARNELGVYLCNLTVADLFYICSLPFWLQYVLQHDNWSHGDLSCQVCGILLYENIYISVGFLCCISVDRYLAVAHPFRFHQFRTLKAAVGVSVVIWAKELLTSIYFLMHEEVIEDENQHRVCFEHYPIQAWLRAINYYRFLVGFLFPICLLLASYQGILRAVRRSHGTQKSRKDQIQRLVLSTVVIFLACFLPYHVLLLVRSVWEASCDFAKGVFNAYHFSLLLTSFNCVADPVLYCFVSETTHRDLARLRGACLAFLTCSRTGRAREAYPLGAPEASGKSGAQGEEPELLTKLHPAFQTPNSPGSGGFPTGRLA [Q182L] | 0.357 | -1.09 | -0.363 | -0.949 | – |
| MGNITADNSSMSCTIDHTIHQTLAPVVYVTVLVVGFPANCLSLYFGYLQIKARNELGVYLCNLTVADLFYICSLPFWLQYVLQHDNWSHGDLSCQVCGILLYENIYISVGFLCCISVDRYLAVAHPFRFHQFRTLKAAVGVSVVIWAKELLTSIYFLMHEEVIEDENQHRVCFEHYPIQAWMRAINYYRFLVGFLFPICLLLASYQGILRAVRRSHGTQKSRKDQIQRLVLSTVVIFLACFLPYHVLLLVRSVWEASCDFAKGVFNAYHFSLLLTSFNCVADPVLYCFVSETTHRDLARLRGACLAFLTCSRTGRAREAYPLGAPEASGKSGAQGEEPELLTKLHPAFQTPNSPGSGGFPTGRLA [Q182M] | 0.263 | – | -0.141 | -0.536 | -0.104 |
| MGNITADNSSMSCTIDHTIHQTLAPVVYVTVLVVGFPANCLSLYFGYLQIKARNELGVYLCNLTVADLFYICSLPFWLQYVLQHDNWSHGDLSCQVCGILLYENIYISVGFLCCISVDRYLAVAHPFRFHQFRTLKAAVGVSVVIWAKELLTSIYFLMHEEVIEDENQHRVCFEHYPIQAWNRAINYYRFLVGFLFPICLLLASYQGILRAVRRSHGTQKSRKDQIQRLVLSTVVIFLACFLPYHVLLLVRSVWEASCDFAKGVFNAYHFSLLLTSFNCVADPVLYCFVSETTHRDLARLRGACLAFLTCSRTGRAREAYPLGAPEASGKSGAQGEEPELLTKLHPAFQTPNSPGSGGFPTGRLA [Q182N] | -0.296 | -0.1 | -0.965 | -0.35 | 0.429 |

Scores with a large standard error are left out. The source holds two more conditions with little spread; they are left out. Read del as a deletion of the residues named and ins as an insertion between two positions. For part of these data: The concentration of ogerin is not given here.
